This is an account of results in patent US11365205B2 (Aurigene Discovery Technologies Limited, priority 2018, dated 2022).

Read-outs that look alike come from different tables or passages of the source.

Assay [1] deals with Z138 cells. Briefly: Z138 cell proliferation assay (XTT). It counts as cell-based. The following applies: 7 days, XTT readout. The protocol: Z138 Cell Proliferation Assay:
Z138 cells were seeded in a 96-well round-bottom plate and treated with varying concentration of compound. The final DMSO concentration was maintained at 0.05%. The selected compounds of present invention were screened in a 9-point dose response format starting with 10 μM and ⅓^rd serial dilution. On the 4th day, cells were spun down and media was replaced while maintaining the initial compound concentration in each well. At the end of the 7th day, cells were spun down and media was aspirated. 50 μL of XTT containing media was added to the wells. The plates were read using the M3 spectrophotometer at 465 nm. GI50 values were calculated by fitting the dose response data to sigmoidal curve fitting equation using GraphPad Prism software V7. […]

Assay [2] deals with PRMT5/MEP50 Complex (Homo sapiens (Human), UniProt O14744). As to the kind of experiment: PRMT5 inhibition based on TR-FRET assay. The class given is biochemical. The following applies: 32 nM PRMT5:MEP50, 50 nM Histone-H4 peptide, 1 μM SAM. An excerpt:
PRMT5 Inhibition Based on TR-FRET Assay:
Protein arginine methyltransferase 5 (PRMT5) is a type II arginine methyltransferase that catalyze mono- and symmetric demethylation on arginine residues of histone or non-histone proteins in presence of S-adenosylmethionine (AdoMet or SAM) a cofactor responsible for donating the methyl group. PRMT5 is reported to be overexpressed in several human cancers. To identify compounds that inhibit the PRMT5 and decrease its activity, a TR-FRET based assay has been established. Time-resolved fluorescence resonance energy transfer (TR-FRET) HTS assays are homogeneous proximity assays where the interaction of two dye-labeled binding partners is detected by the energy transfer between a donor and an acceptor dye and the subsequent light emission by the acceptor dye. PRMT5 catalyzes Histone H4 peptide which is biotin tagged to the Lysine amino acid at carboxyl end, in presence of S-adenosyl-1-methionine (SAM) to methylate the peptide. The antibody specific to mono methylated H4 peptide (H4R3) with Ig conjugate binds to the methylated peptide, indirectly binding to the Europium lanthanide. SureLight Allophycocyanin-Streptavidin binds to the biotin tag of the peptide, therefore accepting the energy transferred from the Europium lanthanide. This energy transfer between Europium to SureLight Allophycocyanin is a direct measure of the activity/inhibition of the PRMT5 enzyme.
Assay buffer: 20 mM BICINE (pH 7.6), 25 mM NaCl, 2 mM DTT, 0.01% Tween-20 and 0.01% BSA.
The compound dilutions were prepared as 7.5% DMSO stock solutions in assay buffer. To 2 μL (7.5×) of test compound, 5 μL of PRMT5 enzyme prepared in assay buffer (Final concentration of 32 nM in 15 μL reaction volume) was added and allowed for 30 minutes pre-incubation time in a white polystyrene 384-well plate at room temperature. […] The plates were then read on Victor-3 with Excitation at 340 nm and Emissions collected at 615 and 665 nm in TR-FRET protocol. […]
(Time-resolved FRET reads energy transfer from a long-lived donor to a nearby acceptor.)

Sequence of UniProt O14744 (O14744 whole entry): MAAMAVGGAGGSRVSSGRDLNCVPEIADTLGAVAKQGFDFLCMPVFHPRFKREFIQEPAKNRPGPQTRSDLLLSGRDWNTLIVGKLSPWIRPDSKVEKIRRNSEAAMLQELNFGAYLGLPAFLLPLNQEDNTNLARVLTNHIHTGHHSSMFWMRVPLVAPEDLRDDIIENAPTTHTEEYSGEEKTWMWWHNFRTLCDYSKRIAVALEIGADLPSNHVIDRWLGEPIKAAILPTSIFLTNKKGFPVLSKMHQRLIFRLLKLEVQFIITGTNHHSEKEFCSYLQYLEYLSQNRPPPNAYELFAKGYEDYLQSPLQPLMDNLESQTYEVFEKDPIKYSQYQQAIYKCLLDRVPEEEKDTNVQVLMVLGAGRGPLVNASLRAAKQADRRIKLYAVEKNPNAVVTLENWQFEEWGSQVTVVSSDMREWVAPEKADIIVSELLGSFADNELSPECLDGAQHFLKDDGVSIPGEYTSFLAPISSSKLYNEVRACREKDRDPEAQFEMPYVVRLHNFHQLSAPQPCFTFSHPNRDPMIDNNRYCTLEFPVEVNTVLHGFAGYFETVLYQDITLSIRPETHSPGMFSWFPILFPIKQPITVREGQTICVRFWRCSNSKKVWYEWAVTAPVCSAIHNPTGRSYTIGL
Sequence of UniProt O14744 (Q9BQA1 whole entry partner): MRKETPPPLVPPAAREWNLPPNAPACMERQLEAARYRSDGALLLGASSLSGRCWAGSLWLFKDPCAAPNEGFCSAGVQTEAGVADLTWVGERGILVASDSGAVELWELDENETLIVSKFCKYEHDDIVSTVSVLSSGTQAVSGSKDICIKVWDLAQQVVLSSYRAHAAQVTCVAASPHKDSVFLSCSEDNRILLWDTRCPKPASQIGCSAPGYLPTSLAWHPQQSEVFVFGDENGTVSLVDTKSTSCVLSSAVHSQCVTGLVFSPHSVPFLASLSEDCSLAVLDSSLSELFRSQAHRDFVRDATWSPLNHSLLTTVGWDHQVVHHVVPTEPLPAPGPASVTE

One may read the GI50 as the concentration giving 50% growth inhibition. For `N#Cc1ccc(CN2CCN(CC(O)CN3CCc4ccccc4C3)C2=O)cc1` (single isomer, unassigned) [Example 18a, 4-((3-(3-(3,4-dihydroisoquinolin-2(1H)-yl)-2-hydroxypropyl)-2-oxoimidazolidin-1-yl)methyl)benzonitrile], the concentration for 50% growth inhibition (GI50) in assay [1] (Homo sapiens, Z-138, 168 h) is < 500 nM.

In general, IC50 refers to the midpoint of a concentration-inhibition curve. Take `N#Cc1ccc(CN2CCN(CC(O)CN3CCc4ccccc4C3)C2=O)cc1` (single isomer, unassigned) [Example 18b, 4-((3-(3-(3,4-dihydroisoquinolin-2(1H)-yl)-2-hydroxypropyl)-2-oxoimidazolidin-1-yl)methyl)benzonitrile]: the GI50 in assay [1] (read-out: Z-138 GI50) is > 1000 nM. In assay [2], the IC50 was 1480 nM.

`N#Cc1ccc(CN2CCN(CC(O)CN3CCc4ccccc4C3)C2=O)nc1` (single isomer, unassigned) [Example 35a, 6-((3-(3-(3,4-Dihydroisoquinolin-2(1H)-yl)-2-hydroxypropyl)-2-oxoimidazolidin-1-yl)methyl)nicotinonitrile]: in assay [1] (Homo sapiens, Z-138, 168 h), the GI50 was < 500 nM. Further, the IC50 in assay [2] stood at 60 nM.

For `N#Cc1ccc(CN2CCN(CC(O)CN3CCc4ccccc4C3)C2=O)nc1` (single isomer, unassigned) [Example 35b, 6-((3-(3-(3,4-Dihydroisoquinolin-2(1H)-yl)-2-hydroxypropyl)-2-oxoimidazolidin-1-yl)methyl)nicotinonitrile], in assay [1] (read-out: Z-138 GI50), the GI50 was > 1000 nM. In assay [2], this compound came in with a concentration for half-maximal inhibition (IC50) of 1750 nM.

As for `N#Cc1ccc(Cn2ccn(CC(O)CN3CCc4ccccc4C3)c2=O)cc1` (single isomer, unassigned) [Example 82b, 4-((3-(3-(3,4-dihydroisoquinolin-2(1H)-yl)-2-hydroxypropyl)-2-oxo-2,3-dihydro-1H-imidazol-1-yl)methyl)benzonitrile], in assay [1] (Homo sapiens, Z-138, 168 h), the 50% growth inhibitory concentration (GI50) is < 500 nM.

With `CC1(C)CN(Cc2ccc(C#N)cc2)C(=O)N1CC(O)CN1CCc2ccccc2C1` (stereo not shown) [Example 2], in assay [1] (Homo sapiens, Z-138, 168 h), the GI50 was < 500 nM.

Consider `Cc1ccc(CN2CC(C)(C)N(CC(O)CN3CCc4ccccc4C3)C2=O)cc1` (stereo not shown) [Example 5, 3-(3-(3,4-dihydroisoquinolin-2(1H)-yl)-2-hydroxypropyl)-4,4-dimethyl-1-(4-methylbenzyl)imidazolidin-2-one], for which the GI50 in assay [1] (Homo sapiens, Z-138, 168 h) is < 500 nM.
